Laboratory results reported in publication PMC3566120.
No constants are given. Whether binding was seen depends on the method and setting. Binding seen in cells or lysates may run through a third protein. Tags and fused reporters may be left off the sequences shown.

The chains behind the UniProt entries cited, without tags or fusion partners.
UniProt P03496: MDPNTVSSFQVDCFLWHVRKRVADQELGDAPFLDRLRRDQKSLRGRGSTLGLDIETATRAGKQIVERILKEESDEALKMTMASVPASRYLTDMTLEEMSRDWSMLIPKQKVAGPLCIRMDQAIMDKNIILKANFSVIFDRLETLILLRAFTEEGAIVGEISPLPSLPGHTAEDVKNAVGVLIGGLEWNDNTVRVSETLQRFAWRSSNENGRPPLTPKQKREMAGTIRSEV

Key:
[1] = target: T1, Myc-tagged hGBP1 mutant K51A (human) (UniProt P32455); assay: co-IP
T1 sequence: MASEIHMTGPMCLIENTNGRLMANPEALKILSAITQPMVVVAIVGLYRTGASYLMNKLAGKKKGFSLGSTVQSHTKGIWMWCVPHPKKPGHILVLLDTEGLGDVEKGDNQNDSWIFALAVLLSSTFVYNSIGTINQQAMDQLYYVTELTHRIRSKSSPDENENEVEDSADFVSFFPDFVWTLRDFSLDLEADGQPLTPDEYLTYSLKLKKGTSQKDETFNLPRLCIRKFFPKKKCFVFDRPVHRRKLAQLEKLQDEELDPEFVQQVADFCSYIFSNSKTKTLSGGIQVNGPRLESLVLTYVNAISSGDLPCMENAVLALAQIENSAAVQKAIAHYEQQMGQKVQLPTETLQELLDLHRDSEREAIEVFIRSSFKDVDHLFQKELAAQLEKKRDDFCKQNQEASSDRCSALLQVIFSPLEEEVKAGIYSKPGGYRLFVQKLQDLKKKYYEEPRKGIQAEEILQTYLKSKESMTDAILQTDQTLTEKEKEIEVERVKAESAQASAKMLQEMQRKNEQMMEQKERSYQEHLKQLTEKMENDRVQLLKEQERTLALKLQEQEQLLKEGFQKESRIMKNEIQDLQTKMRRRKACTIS

[2] = target: T2, hGBP1 mutant K51A fused to the N-terminal fragment of venus fluorescent protein (human) (UniProt P32455); assay: split reporter
T2 sequence: T1 sequence

[3] = target: Flag-tagged wild-type NS1 (nonstructural protein 1) of influenza A virus PR8 (influenza A virus A/Puerto-Rico/8/34 (H1N1; PR8)) (UniProt P03496); assay: co-IP

Flag-tagged wild-type NS1 (nonstructural protein 1) of influenza A virus PR8 (from UniProt P03496 1-230)
binding [1]: no binding

NS1 fused to the C-terminal fragment of venus fluorescent protein (from UniProt P03496 1-230)
binding [2]: no binding

B1: Myc-tagged hGBP1 mutant K51A (protein, UniProt P32455 1-592)
chain: T1 sequence
binding [3]: no binding
